Measurements from article PMC4336329 (PLoS ONE, 2015).
The campaign covered roughly 310,000 compounds. About 14,000 (4.5%) showed an effect of 50% or more. Effects have a minus sign here. This is one part of the list.

target: human ether-à-go-go-related gene (hERG) potassium channel (human, UniProt Q12809); test: primary screen, population patch clamp on CHO cells stably expressing hERG
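Also: peak tail current of the secondary pulse compared with the same well before compound.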

Sequence of human ether-à-go-go-related gene (hERG) potassium channel (Q12809 whole entry, looked up): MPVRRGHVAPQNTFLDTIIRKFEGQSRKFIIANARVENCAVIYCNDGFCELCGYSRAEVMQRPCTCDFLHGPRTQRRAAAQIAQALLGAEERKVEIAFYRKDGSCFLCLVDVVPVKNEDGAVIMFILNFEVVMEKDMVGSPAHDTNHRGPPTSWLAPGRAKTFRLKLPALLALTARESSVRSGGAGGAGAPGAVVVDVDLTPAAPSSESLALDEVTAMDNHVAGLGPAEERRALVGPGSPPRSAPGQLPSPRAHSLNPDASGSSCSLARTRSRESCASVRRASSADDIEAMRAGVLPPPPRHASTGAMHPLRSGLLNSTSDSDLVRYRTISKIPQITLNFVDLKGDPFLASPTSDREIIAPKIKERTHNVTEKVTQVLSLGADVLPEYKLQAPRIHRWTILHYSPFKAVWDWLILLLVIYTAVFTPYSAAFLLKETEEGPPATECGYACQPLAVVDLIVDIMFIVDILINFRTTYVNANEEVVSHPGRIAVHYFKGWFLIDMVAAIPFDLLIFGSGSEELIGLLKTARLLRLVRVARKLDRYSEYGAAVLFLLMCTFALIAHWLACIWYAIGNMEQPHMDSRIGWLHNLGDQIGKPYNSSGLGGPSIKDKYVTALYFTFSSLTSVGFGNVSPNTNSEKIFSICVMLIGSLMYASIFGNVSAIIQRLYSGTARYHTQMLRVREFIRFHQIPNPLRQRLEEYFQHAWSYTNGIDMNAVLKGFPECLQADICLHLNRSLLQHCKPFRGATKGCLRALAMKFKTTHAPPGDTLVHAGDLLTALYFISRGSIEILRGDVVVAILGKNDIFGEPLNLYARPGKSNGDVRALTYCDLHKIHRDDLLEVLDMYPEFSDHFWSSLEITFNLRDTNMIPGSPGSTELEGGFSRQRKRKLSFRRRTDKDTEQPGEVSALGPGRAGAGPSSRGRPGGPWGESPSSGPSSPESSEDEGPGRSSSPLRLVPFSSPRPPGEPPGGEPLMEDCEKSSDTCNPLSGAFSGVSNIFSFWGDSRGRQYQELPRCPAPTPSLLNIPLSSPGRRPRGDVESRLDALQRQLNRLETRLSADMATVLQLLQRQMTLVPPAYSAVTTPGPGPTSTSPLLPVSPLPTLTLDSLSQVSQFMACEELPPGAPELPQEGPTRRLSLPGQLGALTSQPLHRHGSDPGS

| Compound | hERG current change (%, negative = inhibition) at 10uM [%] |
| --- | --- |
| CC(C)(C)n1nc2c(c1NC(=O)c1cc(Cl)ccc1[N+](=O)[O-])CS(=O)(=O)C2 | 9.6 |
| O=C(O)Cn1cc(C(=O)c2ccccc2F)c2ccccc21 | 26.7 |
| O=S(=O)(Nc1cccc(-c2nc3cccnc3s2)c1)c1cccs1 | 10.5 |
| O=C(CCC(=O)N1CCOCC1)NCCc1ccc(Cl)cc1Cl | -14.5 |
| Cc1nn(-c2ccccc2)c2nc(=O)n(-c3ccccc3)cc12 | -10.9 |
| CCOCC(O)CS(=O)Cc1ccccc1 (centres unmarked) | 6.71 |
| CCCS(=O)(=O)N1CCCC(C(=O)N2CCCCC2)C1 (centres unmarked) | 20.7 |
| CC(=O)c1cnc2c(-c3ccccc3)cnn2c1C | -5.87 |
| Cc1cccc(C2c3[nH]c4ccccc4c3CCN2C(=O)c2cc(-c3cccn3C)n[nH]2)n1 (centres unmarked) | 13.1 |
| CCc1cc(C(=O)N/N=C/c2ccc(O)cc2O)c2ccccc2n1 | 7.07 |
| CN(c1ccccc1)S(=O)(=O)c1cccc(C(=O)Nc2nn[nH]n2)c1 | 2.37 |
| O=C(Nc1cc(Cl)cc(Cl)c1)c1ccc(Cn2c(=O)[nH]c3ccsc3c2=O)cc1 | 0.28 |
| O=C(NC1CCCCC1)C1c2ccccc2C(=O)N1Cc1ccco1 (centres unmarked) | -22.9 |
| COc1ccc(Cl)cc1C(=O)C1CCCN(CCO)C1 (centres unmarked) | -11.2 |
| O=C1CN(C(=O)c2cc3ccccc3oc2=O)C(c2ccc(F)cc2)c2cc(F)ccc2N1 (centres unmarked) | -32.1 |
| COc1ccc([C@@H]2CC=C(C(=O)O)[C@H](c3ccccc3)N2S(=O)(=O)c2ccccc2C)cc1 | 19.6 |
| CCOc1ccc(CSC(=N)N)cc1.Cl | -2.44 |
| COc1ccc(CNC(=O)Oc2ccccc2)cc1Cl | -12.7 |
| COc1ccc(C(=O)NC2CCN(Cc3c(F)cccc3Cl)CC2)cc1OC | -1.46 |
| CC1(C)CC(=O)C2=C(C1)NC(=O)CC2c1ccccc1F (centres unmarked) | -4.52 |
| CCN(CC)c1ccc(/C=N/NC(=O)c2ccccn2)cc1 | -5.37 |
| CC(C)OCCCNC(=O)CCCC(=O)Nc1ccc(OCCc2ccccc2)cc1 | 3.85 |
| C=COCCNC(=O)Nc1ccc(Cl)cc1Cl | 2.05 |

| Compound | hERG current change (%, negative = inhibition) at 10uM [%] |
| --- | --- |
| Cc1ccc([N+](=O)[O-])cc1S(=O)(=O)N1CCCN(C)CC1.Cl | 8.94 |
| CNCc1ccccc1OCc1ccccc1F.Cl | -4.37 |
| O=C1NN(c2ccccc2)C(=O)/C1=C\c1cccc(OC(=O)c2cccs2)c1 | 7.65 |
| CCOc1ccccc1Oc1cn[nH]c1-c1ccc(O)cc1O | -3.75 |
| C=CCNc1nc(Nc2ccccc2F)nc(OCC)n1 | -11.1 |
| COc1cc(/C=C(\C#N)c2[nH]nc(N)c2C#N)cc(OC)c1O | 18.1 |
| COc1cc(NS(=O)(=O)c2ccc(NC(=S)NC(=O)c3ccc(F)cc3)cc2)nc(OC)n1 | 3.73 |
| CN(C)CCCN(Cc1cc2cc3c(cc2[nH]c1=O)OCO3)C(=S)Nc1cccc(Cl)c1 | -45.7 |
| O=C(CCc1ccccc1)NNC(=S)Nc1ccc(F)cc1 | 10.5 |
| CCOc1ccccc1C1CC(c2ccc(Br)cc2)Nc2nc(N)nn21 (centres unmarked) | -55.1 |
| Cc1ccc(NS(=O)(=O)c2ccc(Br)s2)cc1S(=O)(=O)N1CCOCC1 | 20.5 |
| CC(=O)Nc1ccccc1NC(=O)c1cc(C)cc(C)c1 | 20.1 |
| CC1C(=O)C(C)C(c2ccccc2F)NC1c1ccccc1F (centres unmarked) | 9.43 |
| O=C(Cc1ccc(Nc2nc(=S)[nH]c3ccccc23)cc1)NC1CCCCC1 | 29 |
| COc1ccc(OC)c(C(=O)c2ccc(C(=O)Nc3cccc4ccccc34)cc2)c1 | 9.47 |
| CC(C)CC1NC(=O)N(CC(=O)c2ccc3c(c2)OCCO3)C1=O (centres unmarked) | 6.78 |
| Cc1ccc(Cl)cc1N1CCN(S(=O)(=O)c2cc3c(cc2C)NC(=O)CO3)CC1 | 11.3 |
| O=C(Nc1ccc2[nH]ncc2c1)C1CCC1 | 10.1 |
| CC(c1ccon1)N(C)C(=O)c1ccc2nc(Cc3cccc(Cl)c3)oc2c1 (centres unmarked) | -42.7 |
| COc1cccc([C@@H]2Oc3ccc(OC)cc3C(=O)[C@H]2OC(=O)N[C@H](C)C2CCCCC2)c1 | 7.6 |
| CCN(CC)S(=O)(=O)c1csc(C(=O)Nc2ccccn2)c1 | -9.44 |
| O=C(Nc1ccc(Cl)cc1)C1CCN(C(=O)c2cccs2)CC1 | -16.2 |
| C#CCn1c(S(=O)(=O)Cc2ccc(F)cc2)nc(-c2ccccc2)c1-c1ccccc1 | -15.9 |

| Compound | hERG current change (%, negative = inhibition) at 10uM [%] |
| --- | --- |
| COC(=O)CSc1nnc(CNC(=O)c2ccc(S(=O)(=O)N(C)C)cc2)n1C | 12.8 |
| Cc1cc(C(F)F)nn1CC(=O)NC1CCCCCC1 | 11.9 |
| Cc1ccc(S(=O)(=O)c2c(C)cc(C)nc2Oc2cccc(C)c2C)cc1 | 8.59 |
| CCCCn1c(CNC(=O)c2cccs2)nc2ccccc21 | -30.2 |
| COc1ccc(Nc2nc(-c3cccc([N+](=O)[O-])c3)nc3ccccc23)cc1 | -5.91 |
| CN1CCN(c2ccc3c(c2)S(=O)(=O)c2ccccc2C3=O)CC1 | -23.4 |
| Cc1ccc(NC(=O)CCN2C(=O)c3ccncc3C2=O)cc1 | 8.48 |
| CCn1c(N2CCN(C(=O)c3ccco3)CC2)nc2ccccc21 | -50.7 |
| Cc1ccc(C(=O)NC(=S)Nc2ccccc2C(F)(F)F)c(C)c1 | 14.1 |
| Cc1ccccc1CN1CCC(n2nccc2NC(=O)c2ccc3c(c2)OCO3)CC1 | -9.06 |
| Cc1nc2ncnn2c(N2CCC(C(=O)NCC3CCCO3)CC2)c1Cc1ccccc1 (centres unmarked) | -17.6 |
| Cc1ccccc1OCCOc1ccccc1C=C(C#N)C#N | 24.5 |
| Cc1ccc(NC(=O)CC2COc3ccccc3O2)cc1 (centres unmarked) | 1.47 |
| O=C(CCC(=O)NC1CCCCC1)NCc1ccc(F)cc1 | -1.02 |
| O=C(O)c1ccc(S(=O)(=O)Cc2ccccc2)cc1 | 10.9 |
| CCOC(=O)c1c(/N=C/c2cc(C)ccc2O)sc2c1CCN(C)C2 | 1.55 |
| CC(=O)Nc1cc(C(=O)OC(C(=O)c2ccccc2)c2ccccc2)ccc1C (centres unmarked) | 1.24 |
| O=C(Nc1ccc(Br)cc1)c1cccc(N2C(=O)CCC2=O)c1 | 6.71 |
| COc1cc2c(C(=O)N3CCN(c4ccccc4F)CC3)cn(C)c(=O)c2cc1OC | -33.1 |
| COC(=O)C1=C(c2ccc(OC(F)(F)F)cc2)C[C@@H]2CC[C@H]1N2C(=O)NCc1ccc(F)cc1 | -39.5 |
| O=C1/C(=C\c2cccs2)SC(=S)N1C1CCS(=O)(=O)C1 (centres unmarked) | 9.01 |
| N#CC1(NC(=O)CN2C(=O)c3ccccc3C2=O)CCCCC1 | -3.31 |
| COc1cc(C(=O)NNC(=S)NC(=O)c2ccc(Cl)cc2)cc(OC)c1OC | 4.79 |

| Compound | hERG current change (%, negative = inhibition) at 10uM [%] |
| --- | --- |
| N#Cc1c(NC(=O)CN2CCCCC2)sc2c1CCC2 | 8.67 |
| Cc1ccc(Sc2c(C#N)c(-c3ccccc3)nn2C)cc1 | -16.1 |
| COC(=O)Cc1c(C)nc2nc(Cc3ccccc3)[nH]n2c1=O | 10.2 |
| Cc1cc(C)nc(-n2nc(C)cc2NC(=O)CN2CCC(C)CC2)n1 | -65.6 |
| CCOC(=O)c1c(NC(=O)COc2ncnc3ccccc23)sc(C)c1CC | -12.5 |
| CC(C)CC1=NN(C(=O)c2cccnc2)C(O)(C(F)(F)F)C1 (centres unmarked) | 15.1 |
| Cc1ccccc1OCc1ccc(C(=O)N2CCOCC2)o1 | 6.86 |
| O=[N+]([O-])c1ccc(N2CCc3ccccc3C2)nc1 | -15.2 |
| COc1ccccc1OCC(=O)N1CCNC1=O | -8.41 |
| Cc1onc(-c2ccccc2)c1-c1ccc(S(N)(=O)=O)cc1 | -18.3 |
| COC(=O)c1cc(NC(=O)Cc2ccccc2[N+](=O)[O-])cc(C(=O)OC)c1 | 10.9 |
| O=C(CN1CCCCCC1)Nc1ccc(Cl)cc1F | -2.05 |
| CCCc1cc(Nc2cccc(OC)c2)n2ncnc2n1 | -28.5 |
| Cc1ccc2nc(SCC(=O)Nc3cccc([N+](=O)[O-])c3)[nH]c2c1 | -11.7 |
| Cc1ccccc1NC(=O)C1C2/C=C\CCCCC21 (centres unmarked) | -3.18 |
| O=C(COc1ccc(F)cc1)N(Cc1cccc(Br)c1)C1CCS(=O)(=O)C1 (centres unmarked) | -24.4 |
| COc1cc(OC)cc(-c2c(-c3ccc(F)cc3)c3cc(Br)ccc3n2C)c1 | -20.1 |
| O=C(CNC(=S)N(CCCN1CCOCC1)Cc1cccs1)NC1CCCCCCC1 | -61.1 |
| Cc1ccc(/C=N/NC(=O)c2c[nH]c3ccccc23)s1 | -4.28 |
| O=C(CN1C(=O)/C(=C/c2cccc(Br)c2)SC1=S)NCCCN1CCOCC1 | 5.42 |
